Values joined by “and” are separate entries in the source; they are usually repeats but may differ in a detail not shown here. Identical values can stand only once. The full ranking holds about 110,000 compounds; the median of “z-score” is about -0.1, and the highest 2% start at about 2. The list shows a part of the results.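 Rule for the calls: active = z-score in the third read window above 3 or below -3; inactive = the rest.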
target: Metabotropic glutamate receptor 8 (Rattus norvegicus) (UniProt P70579); experiment: rat mGluR8 modulators via GIRK flux, primary screen, cell-based, thallium flux, HTS (AID 488969); settings: HEK293 rat mGluR8, GIRK (G protein-gated inwardly rectifying potassium channel) thallium flux, FluoZin2; at 10 µM; stronger effect = higher value; submaximal glutamate (EC20) added with thallium
Chain of UniProt P70579 (P70579 whole entry, looked up): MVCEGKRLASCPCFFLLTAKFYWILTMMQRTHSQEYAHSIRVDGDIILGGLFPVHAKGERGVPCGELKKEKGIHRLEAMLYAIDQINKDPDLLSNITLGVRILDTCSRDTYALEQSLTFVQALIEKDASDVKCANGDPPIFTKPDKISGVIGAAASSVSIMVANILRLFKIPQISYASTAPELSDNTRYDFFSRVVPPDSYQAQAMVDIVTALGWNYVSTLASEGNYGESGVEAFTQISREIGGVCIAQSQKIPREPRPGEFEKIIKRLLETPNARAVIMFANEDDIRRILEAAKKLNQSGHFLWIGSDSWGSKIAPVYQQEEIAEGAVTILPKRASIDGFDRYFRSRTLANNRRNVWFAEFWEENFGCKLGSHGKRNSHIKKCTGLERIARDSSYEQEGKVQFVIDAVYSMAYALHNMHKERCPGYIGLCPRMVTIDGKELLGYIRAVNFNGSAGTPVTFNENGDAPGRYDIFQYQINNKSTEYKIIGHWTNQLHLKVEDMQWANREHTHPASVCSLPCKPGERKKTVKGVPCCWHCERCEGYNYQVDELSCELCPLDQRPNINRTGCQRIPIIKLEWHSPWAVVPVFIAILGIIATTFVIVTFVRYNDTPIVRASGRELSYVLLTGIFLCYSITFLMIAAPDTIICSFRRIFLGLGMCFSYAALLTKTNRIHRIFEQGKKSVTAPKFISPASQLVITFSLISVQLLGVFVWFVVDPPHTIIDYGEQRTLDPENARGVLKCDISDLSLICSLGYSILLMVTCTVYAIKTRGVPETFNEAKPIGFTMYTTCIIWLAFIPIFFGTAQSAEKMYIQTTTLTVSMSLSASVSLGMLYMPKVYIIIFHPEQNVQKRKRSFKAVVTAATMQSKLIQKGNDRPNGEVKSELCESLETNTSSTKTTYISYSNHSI

| Compound | z-score |
| --- | --- |
| COCCCN(C(=S)Nc1cccc(Cl)c1)C(C)c1ccncc1 (stereo not given) | -2.09 |
| O=C(CN1CCN(Cc2ccccc2)CC1)Nc1ccc(S(=O)(=O)N2CCOCC2)cc1 | -0.231 |
| CCCC(=O)N1c2ccccc2[C@@H](N(C(C)=O)c2ccccc2)C[C@H]1C | -0.554 |
| COc1cc2c(=O)n(Cc3ccccc3)c(=O)n(CC(=O)NCc3ccco3)c2cc1OC | 0.453 |
| Brc1ccc(NCc2cccc3ccccc23)nc1 | -0.475 |
| CCc1nc(N[C@H](C(=O)O)C(C)CC)c2oc3ccccc3c2n1 (stereo not given in full) | -0.708 |
| Cn1ncc2c(Nc3ccc4ccccc4c3)ncnc21 | -0.0116 |
| CCCc1nc2ccccc2c(C(=O)OCC(=O)Nc2ccc(S(=O)(=O)N3CCOCC3)cc2)c1CC | -1.19 |
| FC(F)(F)C1=CC(c2ccccc2)=NCCN1 | -0.25 |
| CN1CCN(c2ccc([N+](=O)[O-])cc2NC(=O)c2ccccc2)CC1 | -0.374 |
| O=C(CN1C(=O)c2ccccc2C1=O)N1CCN(c2ccccn2)CC1 | -0.293 |
| COCCn1c(C23CC4CC(CC(C4)C2)C3)n[nH]c1=S | 0.00477 |
| CC(=O)Nc1ccc(N2CCCC2)cc1 | 0.743 |
| COc1ccccc1N1C(C)=CC(=C(C#N)c2nc3ccccc3s2)C=C1C | 0.0828 |
| c1ccc(Nc2nc(-c3cccs3)cs2)nc1 | -0.142 |
| O=C(NC1CCCC1)c1ccc(S(=O)(=O)N2CCOCC2)cc1 | -0.0766 |
| CC(=O)N(c1ccc2oc(=O)sc2c1)S(=O)(=O)c1ccccc1 | -0.932 |
| CC(NC(=O)Cc1ccccc1[N+](=O)[O-])c1ccccc1 (stereo not given) | -0.261 |
| COc1ccc(/C=N/NC(=O)c2nn(-c3ccccc3)c(=O)c3c(N)scc23)cc1 | -0.303 |
| COc1ccccc1NS(=O)(=O)c1cccc(C(=O)N/N=C/c2ccc(N3CCOCC3)cc2)c1 | 0.115 |
| O=C(COc1ccccc1)NCc1nnc2c3ccccc3c(-c3ccccc3)nn12 | -0.698 |
| Cc1nc(N)[nH]c(=O)c1CCC(=O)OCC(C)C | 0.18 |
| CC1=CC(C)(C)Nc2ccccc21 | -0.0658 |
| COc1ccc(C(=O)Cn2nnc(-c3cccs3)n2)cc1 | -0.191 |

| Compound | z-score |
| --- | --- |
| COCCN1C(=O)c2oc3ccccc3c(=O)c2C1c1cccc(O)c1 (stereo not given) | 0.0384 |
| Cn1cnnc1SCC(=O)Nc1cccc(S(=O)(=O)N2CCCCCC2)c1 | -0.218 |
| COC(=O)c1ccc(C)c(-n2c(C)cc(C=O)c2C)c1 | 0.134 |
| COc1ccc2c(c1)-c1c(ssc1=S)C(C)(C)N2C(=O)CSC1=NCCS1 | -0.346 |
| CCOc1ccc(NC(=O)c2ccco2)c([N+](=O)[O-])c1 | 0.00803 |
| C=CCN(CC=C)c1cnn(-c2nc3ccccc3[nH]2)c(=O)c1Cl | -0.513 |
| Cc1ccc(-c2nn3c(C)nnc3s2)cc1NC(=O)c1ccc(Br)o1 | 0.573 |
| O=C1/C(=C\c2ccncc2)SC(=S)N1C1CCCCC1 | -0.405 |
| CCc1ccccc1SCc1noc(C(=O)NCC2CCCO2)c1C(=O)O (stereo not given) | -0.201 |
| O=C(NCCc1ccccc1)c1noc2c1CCCCC2 | 0.00432 |
| C=CCn1c(=O)/c(=C/c2ccc(C)o2)s/c1=C(/C#N)C(=O)c1ccccc1 | 0.324 |
| CC(C)(C)c1ccc(NC(=O)COC(=O)c2ccc([N+](=O)[O-])s2)cc1 | 2.01 |
| COc1ccc2c(CC(=O)OCC(=O)Nc3ccccc3[N+](=O)[O-])coc2c1 | -0.0851 |
| CCOC(=O)c1cc2sccc2n1CC(=O)O | 0.32 |
| Cn1c(=O)oc2cc(S(=O)(=O)NCCN3CCCCCC3)ccc21 | -0.0401 |
| Cc1cc(C(=O)Nc2cccc(/C=C/C(=O)O)c2)c(C)o1 | -0.27 |
| CCCCN1C(=O)/C(=C2/C=CC=CN2C)SC1=S | 1.05 |
| CCOc1ccc(CN=C(N)N=C(N)N)cc1Cl | -0.0998 |
| Cn1c(NC(=O)c2ccccc2)cc(=O)n(C)c1=O | -0.106 |
| CCOc1ccccc1/C=N/NC(=O)c1ccc(Cn2cc([N+](=O)[O-])cn2)o1 | -0.791 |
| Cn1ncc([N+](=O)[O-])c1C(=O)Nc1ccc(-c2nc3ccccc3[nH]2)cc1 | -0.199 |
| O=C1C2C3C=CC(C4CC34)C2C(=O)N1/N=C/c1cccs1 (stereo not given) | 0.0622 |
| N#Cc1ccc(COC(=O)CSc2nnc(N)s2)cc1 | -0.312 |
| Cn1c(=O)c2c(-c3ccccc3)n(-n3cnnc3)cc2n(C)c1=O | 1.23 |

| Compound | z-score |
| --- | --- |
| COc1ccc(CNC(=O)C2CCC(CNc3c(N4CCOCC4)c(=O)c3=O)CC2)cc1 (stereo not given) | -0.657 |
| CCC(=O)Nc1c(C(=O)N2CCCCCC2)cnn1-c1ccc(C)c(C)c1 | 2.47 |
| O=S(=O)(c1ccc(SCCO)nc1)N1CCCC1 | 0.323 |
| CN(C)CCNc1oc(COc2ccc(Cl)cc2Cl)nc1C#N | -0.0733 |
| CC1S/C(=C(\C#N)C(N)=O)N(c2ccc(F)cc2)C1=O (stereo not given) | 0.0104 |
| c1ccc(C2(c3ccccc3)OCC(Cn3cncn3)O2)cc1 (stereo not given) | 0.218 |
| CN(CCCNC(=O)c1cccn2c(=O)c3ccccc3nc12)Cc1ccccc1 | -0.212 |
| C=CCn1c(C)cc(C(=O)CN2C(=O)NC3(CCCc4ccccc43)C2=O)c1C (stereo not given) | 0.483 |
| CCCCNC(=O)CN(c1cc(C(F)(F)F)ccc1Cl)S(C)(=O)=O | -0.33 |
| O=C(CSCc1cccc(Cl)c1)NCc1ccc2c(c1)OCO2 | -0.0208 |
| CCOc1ccc2nc(NC(=O)CCC(=O)c3cccs3)sc2c1 | 0.357 |
| Cc1ccc(-n2ncc3c(=O)n(Cc4ccccn4)cnc32)cc1C | -0.336 |
| CN(CCOc1ccc(-c2ccn(S(=O)(=O)c3ccc(Cl)cc3)n2)cc1)c1ccccn1 | 0.363 |
| O=C(CP(=O)(c1ccccc1)c1ccccc1)N1CCCCC1 | -0.254 |
| COc1ccc(OC)c(S(=O)(=O)N2CCC(C(=O)Nc3cccc(C)c3)CC2)c1 | -0.141 |
| CN(C)c1ccc(C(c2nnnn2C2CCCCC2)N2CCN(C(=O)c3ccco3)CC2)cc1 (stereo not given) | 0.885 |
| O=C(O)C(CCCCN1C(=O)c2ccccc2C1=O)N1C(=O)c2ccccc2C1=O (stereo not given) | 0.0681 |
| COC(CNc1cc(=O)oc2ccccc12)OC | 0.158 |
| CCN(CC)c1cc(Oc2ccccc2)ncn1 | -0.146 |
| Cc1cccc(N2CCN(C(=O)CC(NC(=O)c3ccccc3)c3ccccc3)CC2C)c1 (stereo not given) | -0.215 |
| CC(/C=C\c1cccnc1)=C/C(=O)O | -0.175 and active: 6.26 |
| CC(C)N1C2OC(C3OC4C(O3)N(C(C)C)S(=O)(=O)N4C(C)C)OC2N(C(C)C)S1(=O)=O (stereo not given) | -0.13 |

— PubChem BioAssay AID488969 (Vanderbilt High Throughput Screening Facility, 2010)
